Test results reported in PubChem BioAssay AID1346428 (National Center for Advancing Translational Sciences (NCATS), 2018).
Where “and” joins values, the source holds several entries; their conditions need not be identical. Equal values may be shown once. In all, about 48,000 compounds went through this assay and about 1,200 (2.5%) were called active. Another 2% or so got no clear call; they are omitted.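 Rule for the calls: active = activation of at least 60% and not above a set upper limit (about 1 call in 100 departs from these limits); inconclusive = activation of 40% to 60%, or above that upper limit; inactive = activation under 40%.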 Some of the results follow.

Molecular target: Probable G-protein coupled receptor 32 (Homo sapiens) (UniProt O75388)
Chain of UniProt O75388 (O75388 whole entry, looked up): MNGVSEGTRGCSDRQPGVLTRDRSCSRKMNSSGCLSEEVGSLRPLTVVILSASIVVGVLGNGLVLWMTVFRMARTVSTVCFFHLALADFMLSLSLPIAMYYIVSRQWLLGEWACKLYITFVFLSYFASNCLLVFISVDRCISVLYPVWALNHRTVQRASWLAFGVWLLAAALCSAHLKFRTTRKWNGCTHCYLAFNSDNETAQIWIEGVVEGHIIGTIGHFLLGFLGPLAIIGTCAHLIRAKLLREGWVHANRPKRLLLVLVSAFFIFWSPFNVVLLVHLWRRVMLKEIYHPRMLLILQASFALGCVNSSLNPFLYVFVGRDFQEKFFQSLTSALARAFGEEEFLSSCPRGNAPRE
Experiment: qHTS for Agonists of Human Resolvin D1 Receptor DRV1; note: 0% is about no effect
Settings: CHO-K1 GPR32 beta-arrestin PathHunter luminescence, 90 min; at 76.9 µM; active compounds read high; zero percent set by DMSO-only wells
Procedure, shortened: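 PathHunter beta-arrestin recruitment in CHO-K1 cells stably expressing ProLink-tagged GPR32. Cells were exposed to compound for 90 min at 37 C, then chemiluminescence was read after 1 h detection at ambient temperature; DMSO served as basal control.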

activation, inactive:
CCOC(=O)c1cnc2c(ccc3ccccc32)c1Nc1ccc(Cl)cc1 -4.28%
CCC(=O)N1CCc2cc(S(=O)(=O)NC(CC(C)C)C(=O)NCc3ccc(F)cc3)ccc21 (centres undefined) -6.02%
C[N+]1(CC2COC(c3ccccc3)(C3CCCCC3)O2)CCCCC1 (centres undefined) -9.1%
COC(=O)c1cc(-c2ccc(OC)c(OC)c2)c2c(=O)[nH]c(=O)n(C)c2n1 -6.74%
Cc1cccc(C)c1NC(=O)Cn1c(=O)n(Cc2ccco2)c(=O)c2ccc(C(=O)NC3CCCC3)cc21 -4.35%
Cc1ccc(NC(=O)Cn2c(=O)n(Cc3nc(C)no3)c(=O)c3cc4c(cc32)OCO4)c(Cl)c1 -1.97%
Cc1ccc(S(=O)(=O)c2nc(-c3ccco3)oc2SCC(=O)Nc2ccc(F)cc2)cc1 -26.1%
O=C(CCn1c(=O)c2sccc2n(Cc2cccc(F)c2)c1=O)NCc1ccc2c(c1)OCO2 -14.6%
CC1Cc2cc(S(=O)(=O)CCC(=O)Nc3ccc(F)c(Cl)c3)ccc2N1C(=O)C1CC1 (centres undefined) 14.2%
Cc1cccc(NC(=O)c2ccc(-c3nc(CSc4ccccc4)c(C)o3)cc2)c1C 17.4%
O=c1c2ccccc2n(Cc2ccccc2F)c(=O)n1-c1cccc(F)c1 -8.48%
Cc1ccc(C(=O)Nc2onc3c2CCCC3)cc1 38.5%
O=C(CSc1nnc2ccc3ccccc3n12)c1ccc(F)cc1 -18.5%
COc1ccccc1CNC(=O)c1cnc2sc(N3CCCCCC3)nn2c1=O -15.4%
Cc1ccccc1C(=O)Nc1ccc2c(c1)CCCN2C(=O)c1cccs1 -13%
CSc1ccc(CNC(=O)CCn2c(=O)c3cccn3c3ccc(F)cc32)cc1 -19.2%
COC(=O)c1cc2occc2n1Cc1cccc(C)c1 -27.7%
COc1ccc(C(=O)N2CCC(c3nc(-c4ccc(S(=O)(=O)N5CCCC5)cc4)no3)CC2)cc1 -11%
COc1ccc(C(=O)Nc2ccc(-c3nc4ccccc4s3)cc2C)cc1Cl -4.93%
COCCNC(=O)CCN1C(=O)c2cccnc2Oc2ccc(C)cc21 -6.46%
CC(=O)Nc1nonc1-c1nnc(SCC(=O)Nc2ccc(C)c(Cl)c2)n1-c1ccccc1 -7.87%
COc1ccc(-n2c(=O)c3ccccc3n(Cc3ccccc3C)c2=O)c(OC)c1 -17%
NC(=O)Cn1c(=O)n(CCCCCC(=O)NCc2ccccc2)c(=O)c2sccc21 -6.84%
Cc1ccc(-n2nc(C(=O)Nc3ccc(C)c(F)c3)c3c4ccccc4n(C)c3c2=O)cc1 -4.88%
CCOc1ccc(C(=O)c2cnc3ccc(Cl)cc3c2S(=O)(=O)c2ccc(C)cc2)cc1 -2.92%
CCc1ccccc1Nc1nc2cc(Cl)c(Cl)cc2nc1-n1nc(C)cc1C 7.43%
Cc1ccc(-n2nc(CO)c(C(=O)NCCCc3ccccc3)n2)cc1 -7.42%
COc1ccccc1NC(=O)CSc1nc(-c2ccccc2F)nc2cc(=O)[nH]n12 1.27%
CCN1CCc2nc3sc(C(=O)c4ccc(F)cc4)c(N)c3cc2C1 -55.2%
Cc1ccc(-n2c(=O)c3c(c4cc(C)ccc4n3C)n(CC(=O)NCc3ccccc3)c2=O)cc1 -3.96%
CC(C)(C)c1ccc(C(=O)N2CCC(c3nc4ccccc4o3)CC2)cc1 -14.1%
O=C(CCC1N=C2c3ccccc3N=C(SCc3ccccc3F)N2C1=O)NCc1ccc(F)cc1 (centres undefined) 10.2%
Cc1ccc2occ(CC(=O)N(Cc3ccc(C(C)C)cc3)C3CCS(=O)(=O)C3)c2c1 (centres undefined) -41.7%
COc1ccc(NC(=O)c2c(NCc3cccc(OC)c3)sc3c2CCCC3)cc1 -16.3%
CC1=C(c2ccc(Cl)cc2)S(=O)(=O)N=C1N1CCC(C(=O)NCc2ccccc2F)CC1 -11.6%
COc1ccc(-c2onc(C)c2C)cc1S(=O)(=O)NCC1CCN(Cc2cccc(F)c2)CC1 15.8%
COc1ccc(CCNc2nc3c(-c4cccc(C)c4)nnn3c3ccccc23)cc1OC 5.53%
COc1ccc(NC(=O)Cn2c(=O)ccc3cc(S(=O)(=O)N4CCCC4)ccc32)cc1Cl 18.4%
Cc1cccc(N2CCN(C(=O)Cn3nc(Cc4cccnc4)c4ccccc4c3=O)CC2)c1C -22.8%
COc1ccc(S(=O)(=O)N(CC(=O)Nc2cccnc2)c2ccc(Cl)cc2)cc1 -8.1%
CCOc1ccccc1CNC(=O)c1cccn1-c1nnc(N2CCCC2)s1 18.7%
COc1ccc(CNC(=O)Cn2c(=O)cc(-c3ccccc3)c3c(C)nn(C)c32)cc1 4.98%
Cc1ccccc1NC(=O)c1c(C)oc2ccc(O)c(CN3CCN(C)CC3)c12 -6.18%
CCc1ccc2oc(C(=O)Nc3ccccc3C(=O)OC)cc(=O)c2c1 8.42%
CC(CCc1ccc(O)cc1)NCCc1ccc(O)c(O)c1 (centres undefined) 13.3% and -7.77%
CC(C)(C)c1ccc(-c2nc(SCC(=O)Nc3ccccc3F)n3[nH]c(=O)cc3n2)cc1 0.123%
Cc1cccn2c(=O)c(C(=O)NCCc3ccc(S(N)(=O)=O)cc3)c(O)nc12 -7.04%
Cc1ccccc1CSc1cn(CC(=O)N2CCCCCC2)c2ccccc12 -33.4%
O=C(O)Cn1ccc2cc(S(=O)(=O)N3CCCCCC3)ccc21 -9.24%
COc1ccc(CNC(=O)COCc2cc(-c3cccs3)on2)cc1 -4.38%
O=C(CCOc1ccccc1)N(Cc1cccnc1)c1nc2c(F)cccc2s1 -29.8%
CCCCn1c(NCc2ccc(N(C)C)cc2)nc2ccccc21 -3.94%
COc1ccc(S(=O)(=O)NCC(c2ccco2)N2CCN(c3ccc(F)cc3)CC2)cc1C (centres undefined) -26.8%
O=C(Nc1ccc(F)c(Cl)c1)C1CCCN(c2cnccn2)C1 (centres undefined) 5.43%
COc1ccc(CC2C(=O)Nc3ccc(Br)cc32)cc1OC (centres undefined) -18.3%
COc1ccc(NC(=O)CCc2c(C)nc3nc(CNC(=O)OC(C)(C)C)nn3c2C)cc1OC -12.8%
CCc1ccc(NC(=O)CC2C(=O)N(c3cccc(C)c3)C(=O)N2Cc2ccco2)cc1 (centres undefined) -11.1%
CC(=O)N1CCCC1c1nc2ccccc2n1Cc1ccccc1C (centres undefined) -6.71%
CCc1ccccc1NC(=O)N1CCN(C(=O)c2nsc3ccccc23)CC1 -15.9%
COc1cccc2cc(C(=O)NCCc3c(C)[nH]c4ccc(F)cc34)c(=O)oc12 16.3%
CC1CCN(S(=O)(=O)c2ccc3c(ccn3CCC(=O)NCc3ccc(N(C)C)cc3)c2)CC1 -35.2%
CCNc1nc(NC(C)(C)C)nc(Oc2ccc(=O)n(C)n2)n1 -0.235%
CCS(=O)(=O)N1CCc2cc(C(=O)NCCc3ccc(OC)cc3)ccc21 22.1%
COc1cc(NC(=O)CC(C)n2nc(C)cc2C)cc(OC)c1 (centres undefined) -3.23%
O=C(NCCc1ccccc1)C(=O)NCC(c1ccc2c(c1)OCO2)N1CCOCC1 (centres undefined) 0.162%
COc1cc(NC(=O)C(CCSC)NS(=O)(=O)c2ccc3c(c2)oc(=O)n3C)cc(OC)c1 (centres undefined) -20.4%
CCOc1ccccc1C(=O)N(Cc1ccccc1F)C1CCS(=O)(=O)C1 (centres undefined) -6.01%
Cc1ccc(-c2nnc3ccccc3c2C(=O)Nc2ccccc2F)cc1 -11.8%
Cc1ccc(NC(=O)Cn2c(=O)n(CCC(=O)NCc3ccccc3Cl)c(=O)c3ccccc32)cc1 -3.66%
COc1ccc(Cl)cc1NC(=O)CSc1cn(CC(=O)N2CCCCCC2)c2ccccc12 -14.9%
Cc1ccc(-n2c(=O)c3c(cnn3C)n(CC(=O)Nc3ccccc3C)c2=O)cc1 3.49%
CCOc1ccc(-n2c(SCC(=O)NC3CCCCC3)nc3c([nH]c4ccccc43)c2=O)cc1 -29.8%
Cc1ccc(CNC(=O)CCCn2c(=O)[nH]c3ccc(Br)cc3c2=O)cc1 15.7%
COc1ccc2nc(C)cc(Nc3ccc(Cl)c(Cl)c3)c2c1 12.8%
Cc1cccc(Cn2cc(S(=O)(=O)c3cccc(C)c3)c(=O)c3cc(F)c(N4CCOCC4)cc32)c1 -6.97%
CCCCn1c(=NC(=O)c2cc3ccccc3o2)c(C(=O)OCC)cc2c(=O)n3ccccc3nc21 -3.09%
O=C(Oc1ccc(Cl)cc1)c1cc(-c2ccc3c(c2)OCCO3)on1 2.53%
CCN(CC)CCNC(=O)Cn1nc(C)c2c(C)n(-c3ccccc3)nc2c1=O 2.02%
COc1ccc(Cn2ccnc2SCC(=O)NCc2ccco2)cc1 -5.63%
COc1ccc(-c2onc(C)c2C)cc1S(=O)(=O)NCC1CCN(Cc2cc(C)ccc2C)CC1 -11.8%
Cc1cccc(N2CCN(S(=O)(=O)c3ccc4c(c3)CC(=O)N4C)CC2)c1C -7.6%

activation, active:
Cc1nc2sc(C(N)=O)c(N)c2c(-c2ccc(Br)cc2)c1C(=O)Nc1ccc(Cl)cc1 88%
O=C(Nc1ccc(Cl)c(C(F)(F)F)c1)C1CCN(S(=O)(=O)c2cccc3nonc23)CC1 79%
CC1CCN(S(=O)(=O)c2nnc(NC(=O)c3cccc(Br)c3)s2)CC1 72.7%
